# Data as given in publication PMC9150114, “Itavastatin and resveratrol increase triosephosphate isomerase protein in a newly identified variant of TPI deficiency” (Disease Models & Mechanisms, 2022).
# Target: the molecule itself
# Test: SEC; analytical S200 gel filtration, TPI at 1.5 mg/ml for each variant, 20 mM Tris-HCl pH 8, 200 mM NaCl, 1 mM beta-ME
Protein,stoichiometry N,binding result
"human triosephosphate isomerase Q181P (enzyme, triosephosphate isomerase, human, patient variant p.Q181P (c.542A>C); Variant found in patients; also called TPI^Q181P; hTPI^Q181P) not shown",2,
"human triosephosphate isomerase E105D (enzyme, triosephosphate isomerase, human, common patient variant p.E105D (c.315G>C); Variant found in patients; also called TPI^E105D; E104D (classical numbering)) not shown",,binds
